Test results as given in the supplement of paper PMC3334620.
Whole data set: some 33,000 sequences, median “E-score (-0.5 to 0.5)” near -0.021, cut for the highest 2% near 0.32. This is one part of the list.

Target: T1, Zap1 (UniProt P47043)
T1 sequence: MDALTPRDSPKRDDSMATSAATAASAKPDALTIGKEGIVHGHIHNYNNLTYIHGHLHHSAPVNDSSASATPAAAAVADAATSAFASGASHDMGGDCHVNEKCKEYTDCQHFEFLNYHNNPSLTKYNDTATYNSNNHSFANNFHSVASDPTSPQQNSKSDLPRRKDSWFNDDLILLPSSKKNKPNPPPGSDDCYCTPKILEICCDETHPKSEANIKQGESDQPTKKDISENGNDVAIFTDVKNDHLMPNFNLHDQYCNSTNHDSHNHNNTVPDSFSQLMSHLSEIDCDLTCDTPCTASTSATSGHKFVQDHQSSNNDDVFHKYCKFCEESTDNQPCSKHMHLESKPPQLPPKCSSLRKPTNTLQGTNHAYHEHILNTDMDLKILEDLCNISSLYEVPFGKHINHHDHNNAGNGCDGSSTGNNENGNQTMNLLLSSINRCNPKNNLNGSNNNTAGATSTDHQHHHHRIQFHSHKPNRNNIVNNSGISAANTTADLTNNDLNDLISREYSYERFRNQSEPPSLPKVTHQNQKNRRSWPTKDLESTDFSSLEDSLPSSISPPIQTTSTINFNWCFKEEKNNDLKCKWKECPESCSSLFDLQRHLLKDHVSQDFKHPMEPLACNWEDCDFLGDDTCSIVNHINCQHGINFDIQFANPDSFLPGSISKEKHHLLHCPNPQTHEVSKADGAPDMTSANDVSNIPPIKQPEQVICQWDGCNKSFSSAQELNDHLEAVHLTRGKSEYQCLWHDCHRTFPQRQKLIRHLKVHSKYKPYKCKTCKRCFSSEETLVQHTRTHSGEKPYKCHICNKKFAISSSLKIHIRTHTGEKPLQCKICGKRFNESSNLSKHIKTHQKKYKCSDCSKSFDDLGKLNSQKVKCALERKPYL
Assay: PBM E-score (8-mer binding enrichment) (E-score (-0.5 to 0.5)); higher = stronger / more preferred TF binding; most listed sequences are background and not binding sites
Settings: protein concentration: 200 nM; construct: GST-full length
How it was run: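 Masliner-normalised scans of fluorescent anti-GST signal were the basis for scoring. That signal came from GST-tagged yeast transcription factors applied at about 100-200 nM to double-stranded universal all-10-mer Agilent arrays on fresh or once-stripped slides. Each ungapped eight-base word, pooled with its reverse complement, received an E-score from the Universal PBM Analysis Suite.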

In order of falling “PBM E-score” value:
1. GGTTGTTA  0.355
2. CAAAGGTC  0.314
3. CCCACAAA  0.31
4. AGTACCCG  0.266
5. ACCTGTCA  0.232
6. CGAACCAG  0.196
7. GCGAGTAA  0.187
8. ACCCTGGA  0.161
9. GGGTTGGA  0.16
10. AACAAAGT  0.156
11. CCCGCCAC  0.156
12. CCTGATAC  0.148
13. CCACTGCG  0.134
14. AAAGCGGT  0.131
15. ATTTGAAC  0.125
16. ACAGACCT  0.121
17. CAATTATA  0.121
18. AAATAGTG  0.119
19. AAAATTCA  0.107
20. CGGTAGTA  0.107
21. ACCGTTCG  0.102
22. GATCTAAC  0.0652
23. ACACTGAC  0.0646
24. AATATATG  0.0581
25. CGCCTTTA  0.057
26. CTTCGTCA  0.052
27. AAATCTAC  0.051
28. ACGGTTGA  0.0358
29. AGGTCCAC  0.0357
30. AAAGGGCG  0.0277
31. CGCCGAGA  0.0152
32. CAGTGTTC  0.00957
33. ATAAATCC  -0.00924
34. CGTCAGCA  -0.0127
35. CATCAAAC  -0.016
36. ATAGACCA  -0.0294
37. AAAATAGT  -0.0378
38. AAATCTGT  -0.038
39. CGATACAC  -0.0446
40. CCTTCGAC  -0.0453
41. AGTAAGAT  -0.0474
42. TCCCCAGA  -0.0559
43. ACTTAACG  -0.056
44. ACAAGCGA  -0.0588
45. TCTACCAA  -0.0622
46. ACGGGTGC  -0.0644
47. CACCTATG  -0.0649
48. GCTTGTGA  -0.0677
49. AATCGGAT  -0.0692
50. CAGTGGGA  -0.071
51. CCAGTCGA  -0.0777
52. CAAGAGGC  -0.0842
53. CCCGATTC  -0.0858
54. CTGCTCTA  -0.0882
55. AGCCCAAG  -0.0904
56. AACTCTCA  -0.0905
57. AGTACTCC  -0.1
58. GAGCGGCC  -0.111
59. AGTCTTCG  -0.116
60. CGGCACGA  -0.118
61. TACGCCAA  -0.119
62. ATCGAGCG  -0.124
63. AATTTTCT  -0.131
64. AATGCAAT  -0.138
65. CGGAGAAG  -0.138
66. GATCTACA  -0.14
67. AACAGTCT  -0.14
68. CCAGTCTA  -0.143
69. CCCTGTCA  -0.145
70. GATCTCTA  -0.159
71. ATGTTCGC  -0.159
72. CGTGGCTA  -0.159
73. ATCTCGTC  -0.165
74. GACTGGAA  -0.171
75. CTTACGGA  -0.174
76. ACACCTAG  -0.181
77. GCTGCCTA  -0.185
78. AGGGCAGA  -0.191
79. ATAGATGG  -0.195
80. GGGAACGA  -0.201
81. CATCAGCA  -0.206
82. CATGTTCC  -0.208
83. CTCCTGGC  -0.229
84. GCGTGCTA  -0.268
85. CACGCTGC  -0.276
86. ACACGGGC  -0.377
